# The list shows a part of the results.
# System: S. aureus RN4220
# Test: growth inhibition call (relative growth <= 0.2)
# Details: 50 µM
row,SMILES,growth inhibition call
1,Cc1ncc(COP(=O)(O)O)c(C=O)c1O,inactive
2,O=C(C[C@H]1CC[C@@H]2[C@H](COC[C@@H](O)CN2C(=O)Nc2cccc(Cl)c2)O1)NCc1ccccc1F,active
3,COCC(=O)N1C[C@@H](C)[C@H](OC)CN(C)C(=O)c2ccc(NC(=O)c3ccc(F)cc3)cc2OC[C@@H]1C,inactive
4,CO[C@@H](CNS(C)(=O)=O)c1ccsc1,inactive
5,Cl.Clc1ccc(Cn2c(CN3CCCC3)nc3ccccc32)cc1,inactive
6,C[C@@H]1CCCCO[C@@H](CN(C)Cc2ccccc2)[C@@H](C)CN([C@@H](C)CO)C(=O)c2cc(NC(=O)c3ccccc3)ccc2O1,inactive
7,C[C@@H]1CN([C@@H](C)CO)C(=O)c2cccc(NC(=O)Nc3ccc4c(c3)OCO4)c2O[C@@H]1CN(C)Cc1ccc(-c2ccccc2)cc1,inactive
8,C[C@H](CO)N1C[C@H](C)[C@H](CN(C)C(=O)Nc2ccc(C(F)(F)F)cc2)Oc2ccc(NC(=O)Nc3ccc(F)cc3)cc2C1=O,inactive
9,N#C[C@@H]1[C@@H](c2ccc(C#Cc3ccccn3)cc2)[C@H](CO)N1C(=O)CN1CCOCC1,inactive
10,Cc1ccc(C(=O)Nc2ccc(Nc3ccccc3)cc2)c(C)c1,inactive
11,N[C@@]1(C(=O)O)CO[C@H]2[C@H](C(=O)O)[C@H]21,inactive
12,Cc1noc(C)c1NC(=O)N(C)C[C@H]1Oc2c(NC(=O)c3ccc(-c4nccs4)cc3)cccc2C(=O)N([C@H](C)CO)C[C@@H]1C,inactive
